# According to the supplement of paper PMC8728848:
# This is one part of the list.
# What was measured:
# Assay in all cases: glycan array binding signal (z-score within array); higher = stronger binding
# Settings in all cases: glycan notation: IUPAC condensed, linker removed
# [1] = molecular target: Fuc(a1-2)[Gal(a1-3)]Gal(b1-4)GlcNAc(b1-2)Man(a1-3)[Fuc(a1-2)[Gal(a1-3)]Gal(b1-4)GlcNAc(b1-2)Man(a1-6)]Man(b1-4)GlcNAc(b1-4)GlcNAc
# How it was run: (§1)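 Negative Z-scores can be read as non-binding. The Z-score is calculated within each array and then averaged across arrays of one protein sequence at different concentrations or buffers and across linkers. Arrays, 3228 in all, were curated from the Consortium for Functional Glycomics database and kept only where the protein sequence was available.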
# [2] = molecular target: Fuc(a1-2)[Gal(a1-3)]Gal(b1-4)GlcNAc(b1-2)Man(a1-3)[Fuc(a1-2)[Gal(a1-3)]Gal(b1-4)GlcNAc(b1-2)Man(a1-6)]Man(b1-4)GlcNAc(b1-4)[Fuc(a1-6)]GlcNAc
# How it was run: as §1
# [3] = molecular target: Fuc(a1-2)[Gal(a1-3)]Gal(b1-4)GlcNAc(b1-3)GalNAc
# How it was run: as §1
# [4] = molecular target: Fuc(a1-2)[Gal(a1-3)]Gal(b1-4)GlcNAc(b1-3)[Fuc(a1-2)[Gal(a1-3)]Gal(b1-4)GlcNAc(b1-6)]GalNAc
# How it was run: as §1
# [5] = molecular target: Fuc(a1-2)[Gal(a1-3)]Gal(b1-4)GlcNAc(b1-6)GalNAc
# How it was run: as §1
# [6] = molecular target: Fuc(a1-2)[Gal(a1-3)]Gal(b1-4)[Fuc(a1-3)]Glc
# How it was run: as §1
# [7] = molecular target: Fuc(a1-2)[Gal(a1-3)]Gal(b1-4)[Fuc(a1-3)]GlcNAc
# How it was run: as §1
# [8] = molecular target: Fuc(a1-2)[Gal(a1-3)]Gal(b1-4)[Fuc(a1-3)]GlcNAc(b1-3)GalNAc
# How it was run: as §1
# [9] = molecular target: Fuc(a1-2)[Gal(a1-4)]Gal(b1-4)GlcNAc
# How it was run: as §1
# [10] = molecular target: Fuc(a1-2)[GalNAc(a1-3)]Gal
# How it was run: as §1
# [11] = molecular target: Fuc(a1-2)[GalNAc(a1-3)]Gal(b1-3)GalNAc(a1-3)[Fuc(a1-2)]Gal(b1-4)GlcNAc
# How it was run: as §1
# [12] = molecular target: Fuc(a1-2)[GalNAc(a1-3)]Gal(b1-3)GalNAc(b1-3)Gal(a1-4)Gal(b1-4)Glc
# How it was run: as §1
# [13] = molecular target: Fuc(a1-2)[GalNAc(a1-3)]Gal(b1-3)GlcNAc
# How it was run: as §1
# [14] = molecular target: Fuc(a1-2)[GalNAc(a1-3)]Gal(b1-3)GlcNAc(b1-2)Man(a1-3)[Fuc(a1-2)[GalNAc(a1-3)]Gal(b1-3)GlcNAc(b1-2)Man(a1-6)]Man(b1-4)GlcNAc(b1-4)GlcNAc
# How it was run: as §1
# [15] = molecular target: Fuc(a1-2)[GalNAc(a1-3)]Gal(b1-3)GlcNAc(b1-2)Man(a1-3)[Fuc(a1-2)[GalNAc(a1-3)]Gal(b1-3)GlcNAc(b1-2)Man(a1-6)]Man(b1-4)GlcNAc(b1-4)[Fuc(a1-6)]GlcNAc
# How it was run: as §1
# [16] = molecular target: Fuc(a1-2)[GalNAc(a1-3)]Gal(b1-3)GlcNAc(b1-3)GalNAc
# How it was run: as §1
# [17] = molecular target: Fuc(a1-2)[GalNAc(a1-3)]Gal(b1-3)GlcNAc(b1-6)GalNAc
# How it was run: as §1
# [18] = molecular target: Fuc(a1-2)[GalNAc(a1-3)]Gal(b1-4)Glc
# How it was run: as §1
# [19] = molecular target: Fuc(a1-2)[GalNAc(a1-3)]Gal(b1-4)GlcNAc
# How it was run: as §1
# [20] = molecular target: Fuc(a1-2)[GalNAc(a1-3)]Gal(b1-4)GlcNAc(b1-2)Man
# How it was run: as §1
# [21] = molecular target: Fuc(a1-2)[GalNAc(a1-3)]Gal(b1-4)GlcNAc(b1-2)Man(a1-3)[Fuc(a1-2)[GalNAc(a1-3)]Gal(b1-4)GlcNAc(b1-2)Man(a1-6)]Man(b1-4)GlcNAc(b1-4)GlcNAc
# How it was run: as §1
# [22] = molecular target: Fuc(a1-2)[GalNAc(a1-3)]Gal(b1-4)GlcNAc(b1-2)Man(a1-3)[Fuc(a1-2)[GalNAc(a1-3)]Gal(b1-4)GlcNAc(b1-2)Man(a1-6)]Man(b1-4)GlcNAc(b1-4)[Fuc(a1-6)]GlcNAc
# How it was run: as §1
# [23] = molecular target: Fuc(a1-2)[GalNAc(a1-3)]Gal(b1-4)GlcNAc(b1-3)Gal(b1-4)GlcNAc
# How it was run: as §1
# [24] = molecular target: Fuc(a1-2)[GalNAc(a1-3)]Gal(b1-4)GlcNAc(b1-3)Gal(b1-4)GlcNAc(b1-3)Gal(b1-4)GlcNAc
# How it was run: as §1
# [25] = molecular target: Fuc(a1-2)[GalNAc(a1-3)]Gal(b1-4)GlcNAc(b1-3)GalNAc
# How it was run: as §1
# [26] = molecular target: Fuc(a1-2)[GalNAc(a1-3)]Gal(b1-4)GlcNAc(b1-3)[Fuc(a1-2)[GalNAc(a1-3)]Gal(b1-4)GlcNAc(b1-6)]GalNAc
# How it was run: as §1
# [27] = molecular target: Fuc(a1-2)[GalNAc(a1-3)]Gal(b1-4)GlcNAc(b1-6)GalNAc
# How it was run: as §1
# [28] = molecular target: Fuc(a1-2)[GalNAc(a1-3)]Gal(b1-4)[Fuc(a1-3)]GlcNAc
# How it was run: as §1
# [29] = molecular target: Fuc(a1-2)[GalNAc(a1-3)]Gal(b1-4)[Fuc(a1-3)]GlcNAc(b1-3)GalNAc
# How it was run: as §1
# [30] = molecular target: Fuc(a1-2)[GalNAc(a1-4)]Gal(b1-4)GlcNAc
# How it was run: as §1
binder,measurement,setting,value
Di AAL2 (Agrocybe aegerita) (protein) MTSNVITQDLPIPVASRGFADIVGFGLDGVVIGRNAVNLQPFLAVKNFAQNAGGWLTTKHVRLIADTTGTGKGDIVGFGNAGVYVSVNNGKNTFADPPKMVIANFGYDAGGWRVEKHLRYLADIRKIGRADIIGFGEKGVLVSRNNGGLNFGPATLVLKDFGYDAGGWRLDRHLRFLADVTGNGHLDIVGFGDKHVFISRNNGDGTFAPAKSVIDNFCIDAGGWKIGDHPRFVADLTGDGTADIIGCGKAGCWVALNNGGGVFGQVKLVINDFGTDKGWQAAKHPRFIADLTGNGRGDVVGFGNAGVYVALNNGDGTFQSAKLVLKDFGVQQGWTVSKHRRFVVDLTGDGCADIIGFGEKETLVSYNDGKGNFGPVKALTNDFSFSGGKWAPETTVCWMANLDSSRHPAPAPMTSNVITQDLPIPVASRGFADIVGFGLDGVVIGRNAVNLQPFLAVKNFAQNAGGWLTTKHVRLIADTTGTGKGDIVGFGNAGVYVSVNNGKNTFADPPKMVIANFGYDAGGWRVEKHLRYLADIRKIGRADIIGFGEKGVLVSRNNGGLNFGPATLVLKDFGYDAGGWRLDRHLRFLADVTGNGHLDIVGFGDKHVFISRNNGDGTFAPAKSVIDNFCIDAGGWKIGDHPRFVADLTGDGTADIIGCGKAGCWVALNNGGGVFGQVKLVINDFGTDKGWQAAKHPRFIADLTGNGRGDVVGFGNAGVYVALNNGDGTFQSAKLVLKDFGVQQGWTVSKHRRFVVDLTGDGCADIIGFGEKETLVSYNDGKGNFGPVKALTNDFSFSGGKWAPETTVCWMANLDSSRH,glycan array binding signal (z-score),[1],-0.331
same,glycan array binding signal (z-score),[2],-0.328
same,glycan array binding signal (z-score),[3],-0.336
same,glycan array binding signal (z-score),[4],-0.292
same,glycan array binding signal (z-score),[5],-0.32
same,glycan array binding signal (z-score),[6],-0.344
same,glycan array binding signal (z-score),[7],-0.335
same,glycan array binding signal (z-score),[8],-0.331
same,glycan array binding signal (z-score),[9],-0.338
same,glycan array binding signal (z-score),[10],0.095
same,glycan array binding signal (z-score),[11],-0.258
same,glycan array binding signal (z-score),[12],-0.225
same,glycan array binding signal (z-score),[13],-0.172
same,glycan array binding signal (z-score),[14],-0.134
same,glycan array binding signal (z-score),[15],-0.311
same,glycan array binding signal (z-score),[16],-0.261
same,glycan array binding signal (z-score),[17],-0.309
same,glycan array binding signal (z-score),[18],0.055
same,glycan array binding signal (z-score),[19],-0.018
same,glycan array binding signal (z-score),[20],-0.167
same,glycan array binding signal (z-score),[21],-0.125
same,glycan array binding signal (z-score),[22],-0.325
same,glycan array binding signal (z-score),[23],0.422
same,glycan array binding signal (z-score),[24],0.209
same,glycan array binding signal (z-score),[25],-0.3
same,glycan array binding signal (z-score),[26],-0.246
same,glycan array binding signal (z-score),[27],-0.186
same,glycan array binding signal (z-score),[28],-0.252
same,glycan array binding signal (z-score),[29],-0.323
same,glycan array binding signal (z-score),[30],-0.215
